These results are taken from the supplement of paper PMC6089552.

The whole screen tested about 3,200 compounds, of which about 300 (9.4%) showed activity. Only a part is listed here, and it is no random draw.

The test relates to A673/TR/shEF. As to the kind of experiment: cell viability (LOESS-normalised, relative to median of negative controls) (log2 ratio); higher = more viable cells (less compound effect), active = hit call of the paper (over 3 MAD below the median). Conditions: treatment time: 72 h. The method in brief:
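Viability of A673/TR/shEF Ewing sarcoma cells was determined by CellTiter-Glo luminescence. The cells, at 1,500 per well in 384-well plates, were grown with or without doxycycline from 24 h before compound addition to switch on EWS-FLI1 shRNA knockdown, then exposed for three days to library compounds at two or more concentrations or to DMSO controls. Signals were LOESS-corrected plate by plate, normalised to the negative-control median and log2-transformed.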

The mark [1] stands for this setting: 0.25 µM, library screen: screen1, EWS-FLI1 expression: high (no doxycycline).
Where [2] appears, read: 0.25 µM, library screen: screen1, EWS-FLI1 expression: low (doxycycline-induced shRNA knockdown).
The mark [3] stands for this setting: 0.25 µM, library screen: screen2, EWS-FLI1 expression: high (no doxycycline).
[4] abbreviates: 0.25 µM, library screen: screen2, EWS-FLI1 expression: low (doxycycline-induced shRNA knockdown).
Setting [5] is: 2.5 µM, library screen: screen1, EWS-FLI1 expression: high (no doxycycline).
Where [6] appears, read: 2.5 µM, library screen: screen1, EWS-FLI1 expression: low (doxycycline-induced shRNA knockdown).
Setting [7] is: 2.5 µM, library screen: screen2, EWS-FLI1 expression: high (no doxycycline).
Where [8] appears, read: 2.5 µM, library screen: screen2, EWS-FLI1 expression: low (doxycycline-induced shRNA knockdown).
[9] abbreviates: 0.103 µM, library screen: screen3, EWS-FLI1 expression: high (no doxycycline).
Where [10] appears, read: 0.103 µM, library screen: screen3, EWS-FLI1 expression: low (doxycycline-induced shRNA knockdown).
Setting [11] is: 0.308 µM, library screen: screen3, EWS-FLI1 expression: high (no doxycycline).
[12] abbreviates: 0.308 µM, library screen: screen3, EWS-FLI1 expression: low (doxycycline-induced shRNA knockdown).
[13] abbreviates: 0.926 µM, library screen: screen3, EWS-FLI1 expression: high (no doxycycline).
[14] abbreviates: 0.926 µM, library screen: screen3, EWS-FLI1 expression: low (doxycycline-induced shRNA knockdown).
The mark [15] stands for this setting: 2.8 µM, library screen: screen3, EWS-FLI1 expression: high (no doxycycline).
Where [16] appears, read: 2.8 µM, library screen: screen3, EWS-FLI1 expression: low (doxycycline-induced shRNA knockdown).
Setting [17] is: 8.3 µM, library screen: screen3, EWS-FLI1 expression: high (no doxycycline).
Setting [18] is: 8.3 µM, library screen: screen3, EWS-FLI1 expression: low (doxycycline-induced shRNA knockdown).
Where [19] appears, read: 25 µM, library screen: screen3, EWS-FLI1 expression: high (no doxycycline).
Setting [20] is: 25 µM, library screen: screen3, EWS-FLI1 expression: low (doxycycline-induced shRNA knockdown).

On to `CCCCC[C@H](CC(=O)NO)C(=O)N[C@H](C(=O)N1CCC[C@H]1CO)C(C)C`, for which the “cell viability (log2)” value was inactive: 0.083 under setting [1]; inactive: 0.00168 under setting [2]; inactive: 0.112 under setting [3]; inactive: 0.105 under setting [4]; inactive: 0.139 under setting [5]; inactive: 0.0527 under setting [6]. For the same molecule, the “cell viability (log2)” value is inactive: 0.0931 under setting [7] and inactive: 0.109 under setting [8].

For `CCCCCCCCCC(=O)N[C@@H](Cc1c[nH]c2ccccc12)C(=O)N[C@@H](CC(N)=O)C(=O)N[C@@H](CC(=O)O)C(=O)NC1C(=O)NCC(=O)N[C@@H](CCCN)C(=O)N[C@@H](CC(=O)O)C(=O)N[C@H](C)C(=O)N[C@@H](CC(=O)O)C(=O)NCC(=O)N[C@H](CO)C(=O)N[C@@H](C(C)CC(=O)O)C(=O)N[C@@H](CC(=O)c2ccccc2N)C(=O)OC1C` (stereo partly specified), the “cell viability (log2)” value is inactive: -0.000338 under setting [9]; inactive: -0.000608 under setting [10]; inactive: 0.0186 under setting [11]; inactive: 0.0343 under setting [12]; inactive: 0.103 under setting [13]; inactive: 0.0444 under setting [14]. The “cell viability (log2)” value is, setting by setting: under setting [15], inactive: 0.0611; under setting [16], inactive: 0.0124; under setting [17], inactive: 0.0568; under setting [18], inactive: 0.116; under setting [19], inactive: -0.0118; under setting [20], inactive: -0.0633.

As for `CC(C)(O)CC[C@@H](O)[C@@](C)(O)[C@H]1CC[C@@]2(O)C3=CC(=O)[C@@H]4C[C@@H](O)[C@@H](O)C[C@]4(C)[C@H]3CC[C@]12C`, the “cell viability (log2)” value runs as follows: under setting [1], inactive: 0.0407; under setting [2], inactive: 0.101; under setting [5], inactive: 0.0783; under setting [6], inactive: 0.0234.

With `O=C(O)c1cccc(Nc2ccnc(Nc3cccc(C(=O)O)c3)n2)c1`, the “cell viability (log2)” value by setting is: under setting [1], inactive: 0.0739; under setting [2], inactive: 0.0898; under setting [5], inactive: 0.0811; under setting [6], inactive: -0.00917.

For `Cc1c(CC(C)(C)C(=O)O)n(Cc2ccc(Cl)cc2)c2ccc(F)cc12`, the “cell viability (log2)” value is inactive: 0.164 under setting [3], inactive: 0.182 under setting [4], inactive: 0.109 under setting [7] and inactive: 0.0488 under setting [8].

For `O=C(O)c1cc(=O)c2c(OCC(O)COc3cccc4oc(C(=O)O)cc(=O)c34)cccc2o1`, the “cell viability (log2)” value runs as follows: under setting [1], inactive: 0.121; under setting [2], inactive: 0.152; under setting [5], inactive: 0.0934; under setting [6], inactive: 0.042.

As to `COC1=C(OC)C(=O)c2ccccc2C1=O`, the “cell viability (log2)” value is inactive: 0.153 under setting [3], inactive: 0.0608 under setting [4], inactive: 0.12 under setting [7] and inactive: 0.0758 under setting [8].

For `COc1cc(O)c2c(=O)c(-c3ccc(O)cc3)coc2c1`, the “cell viability (log2)” value by setting is: under setting [1], inactive: -0.0342; under setting [2], inactive: 0.0164; under setting [5], inactive: 0.131; under setting [6], inactive: 0.0327.

`CC(C)CCC[C@@H](C)[C@H]1CC[C@H]2[C@@H]3CC=C4C[C@@H](O)CC[C@]4(C)[C@H]3CC[C@]12C`: the “cell viability (log2)” value was inactive: 0.151 under setting [1], inactive: 0.0665 under setting [2], inactive: 0.269 under setting [5] and inactive: 0.267 under setting [6].

For `CCCCCC1C(=O)CCC1CC(=O)O` (stereo unspecified), the “cell viability (log2)” value reads like this: under setting [1], inactive: 0.0024; under setting [2], inactive: -0.00904; under setting [5], inactive: 0.144; under setting [6], inactive: 0.0215.

Consider `C[N+](C)(C)CCOP(=O)([O-])OP(=O)(O)OC[C@H]1O[C@@H](n2ccc(N)nc2=O)[C@H](O)[C@@H]1O`, for which the “cell viability (log2)” value reads like this: under setting [3], inactive: 0.0983; under setting [4], inactive: 0.0319; under setting [7], inactive: 0.095; under setting [8], inactive: 0.0926.

`CN(C)CCC(c1ccccc1)c1ccccn1` (stereo unspecified): the “cell viability (log2)” value is inactive: 0.0471 under setting [1], inactive: 0.119 under setting [2], inactive: 0.0893 under setting [5] and inactive: 0.201 under setting [6].

For the molecule `N=C(N=C(N)N)N1CCOCC1`, the “cell viability (log2)” value under setting [9] is inactive: -0.021; the “cell viability (log2)” value under setting [10] is inactive: 0.109; the “cell viability (log2)” value under setting [1] was inactive: 0.0942; the “cell viability (log2)” value under setting [2] is inactive: -0.0417; the “cell viability (log2)” value under setting [11] is inactive: 0.127; the “cell viability (log2)” value under setting [12] was inactive: 0.0816. Also, the “cell viability (log2)” value reads like this: under setting [13], inactive: 0.0691; under setting [14], inactive: 0.0387; under setting [5], inactive: 0.154; under setting [6], inactive: 0.0743; under setting [15], inactive: 0.107; under setting [16], inactive: 0.065. For the same molecule, the “cell viability (log2)” value under setting [17] was inactive: 0.132, the “cell viability (log2)” value under setting [18] was inactive: 0.0337, the “cell viability (log2)” value under setting [19] was inactive: 0.206 and the “cell viability (log2)” value under setting [20] was inactive: 0.0326.

On to `CCOc1cccc(=O)c2c(C)[nH]c(C)c12`, for which the “cell viability (log2)” value reads like this: under setting [1], inactive: 0.0528; under setting [2], inactive: 0.134; under setting [5], inactive: 0.0744; under setting [6], inactive: 0.088.

On to `CC(=O)OCC(=O)[C@@]12OC3(CCCC3)O[C@@H]1C[C@H]1[C@@H]3CCC4=CC(=O)C=C[C@]4(C)[C@@]3(F)[C@@H](O)C[C@@]12C`, for which the “cell viability (log2)” value is inactive: 0.0908 under setting [1], inactive: -0.224 under setting [2], inactive: 0.0907 under setting [5] and inactive: -0.41 under setting [6].

`COc1cc2c(cc1OC)Cc1cc(OC)c(OC)cc1Cc1cc(OC)c(OC)cc1C2`: the “cell viability (log2)” value is, setting by setting: under setting [1], inactive: 0.0474; under setting [2], inactive: -0.00812; under setting [5], inactive: 0.0387; under setting [6], inactive: -0.0322.

Consider `N[C@@H](CC(=O)N1CCn2c(nnc2C(F)(F)F)C1)Cc1cc(F)c(F)cc1F`, for which the “cell viability (log2)” value is inactive: -0.0148 under setting [9]; inactive: 0.000746 under setting [10]; inactive: 0.0564 under setting [11]; inactive: -0.0121 under setting [12]; inactive: -0.00306 under setting [13]; inactive: 0.0567 under setting [14]. Moreover, the “cell viability (log2)” value is inactive: -0.0309 under setting [15]; inactive: 0.0592 under setting [16]; inactive: 0.0707 under setting [17]; inactive: 0.0678 under setting [18]; inactive: 0.0606 under setting [19]; inactive: 0.0133 under setting [20].

In the case of `C[C@@H]1O[C@@H](O[C@H]2[C@H](Oc3cc(O)c4c(c3)O[C@H](c3ccc(O)cc3)CC4=O)O[C@H](CO)[C@@H](O)[C@@H]2O)[C@H](O)[C@H](O)[C@H]1O`, the “cell viability (log2)” value under setting [1] is inactive: 0.0898, the “cell viability (log2)” value under setting [2] was inactive: 0.112, the “cell viability (log2)” value under setting [5] is inactive: 0.163 and the “cell viability (log2)” value under setting [6] is inactive: 0.0667.

Consider `Cn1cc(C2=C(c3cn(CCCSC(=N)N)c4ccccc34)C(=O)NC2=O)c2ccccc21`, for which the “cell viability (log2)” value (0.025 µM, library screen: screen1, EWS-FLI1 expression: high (no doxycycline)) was inactive: 0.0502; the “cell viability (log2)” value (0.025 µM, library screen: screen1, EWS-FLI1 expression: low (doxycycline-induced shRNA knockdown)) was inactive: 0.0613; the “cell viability (log2)” value under setting [1] was inactive: -0.0731; the “cell viability (log2)” value under setting [2] is inactive: 0.0259; the “cell viability (log2)” value under setting [5] was active: -1.27; the “cell viability (log2)” value under setting [6] is active: -0.615. Moreover, the “cell viability (log2)” value is active: -4.25 (25 µM, library screen: screen1, EWS-FLI1 expression: high (no doxycycline)) and active: -2.05 (25 µM, library screen: screen1, EWS-FLI1 expression: low (doxycycline-induced shRNA knockdown)).

As to `COc1c(O)cc(O)cc1O`, the “cell viability (log2)” value is, setting by setting: under setting [1], inactive: 0.0746; under setting [2], inactive: 0.0275; under setting [5], inactive: 0.127; under setting [6], inactive: 0.0739.

`C[C@@H]1O[C@@H](OC[C@H]2O[C@@H](Oc3c(-c4ccc(O)c(O)c4)oc4cc(O)cc(O)c4c3=O)[C@H](O)[C@@H](O)[C@@H]2O)[C@H](O)[C@H](O)[C@H]1O`: the “cell viability (log2)” value under setting [1] was inactive: 0.159, the “cell viability (log2)” value under setting [2] is inactive: 0.0843, the “cell viability (log2)” value under setting [5] was inactive: 0.198 and the “cell viability (log2)” value under setting [6] is inactive: 0.157.

`C[N+](C)(C)CCC(=O)c1cccc2ccccc12`: the “cell viability (log2)” value is active: -0.0772 under setting [3] and active: -0.524 under setting [7].

Consider `CCCC(=O)Nc1ccc(OCC(O)CNC(C)C)c(C(C)=O)c1` (stereo unspecified), for which the “cell viability (log2)” value by setting is: under setting [1], inactive: 0.193; under setting [2], inactive: 0.113; under setting [5], inactive: 0.223; under setting [6], inactive: 0.0993.
